In the RNAGym collection of RNA variant scans (doi:10.7554/elife.90254):
Read counts are not given, so values of variants with three or more changes are uncertain.

B1: LINE1-mini (parent)
chain: GGCAGAGCUCAACACAGCGUGGCAAAGUGGCUGUGGCUAGACUGCC

Variants of: B1
Assay: self-cleavage, relative activity (ratio to wild type); higher = more cleavage; in vitro, sequencing; the parent is a self-cleaving ribozyme

Row | Variant | self-cleavage
1 | A4U A12G C23G | 0.01
2 | A4G U9C A24C C31G | 0.01
3 | A4U A12C C18U G33C | 0.01
4 | A4G G7U A14C G17A C23U | 0.15
5 | A4G U20A G33C | 0.2
6 | A4U G29U U38G | 0.04
7 | A4G G21U A26U | 0.35
8 | A4G G5U C31U | 0.03
9 | A4G G22A A24U | 0.46
10 | A4G G7U G35U G36C | 0.05
11 | A4G G21C G29U G44C C45U | 0.01
12 | A4U C8A G40U | 0.35
13 | A4G G22U G27U C37U | 0.04
14 | A4G G5C U32C | 0.11
15 | A4U A26G C37A G40U | 0.12
16 | G5A A6U C8A A14C G30U A39G | 0.11
17 | A4U G7A C46U | 0.08
18 | A4U G7C G22C G40A | 0.03
19 | A4U C10G A12U A26U G30C C37U | 0.02
20 | A4G G33C G40C C46U | 0.01
21 | G5A A11U C13G | 0.01
22 | A4U C13U G44C | 0.14
23 | A4U G7U G22A | 0.13
24 | A4U A6U G29A G33U G36A | 0.06

Row | Variant | self-cleavage
25 | A4U G33U G40U | 0.13
26 | G5A A11C G27U G40A G44A C46A | 0.01
27 | A4G C15A A16U U28C G33C | 0.04
28 | A4G G30C C37A | 0.56
29 | A4U C8A G35A | 0.31
30 | A4G C18A U28G U43A | 0.1
31 | A4U G21U C23G | 0.28
32 | A4U U9G C15U A41C | 0.09
33 | A4G G40A C42A | 0.26
34 | A4U C8A C18U U20G | 0.05
35 | A4U A25C U28C A41U C46G | 0.01
36 | A4G C13G A14G | 0.06
37 | A4G G5C G7C | 0.16
38 | A4G G19C U28C U34G C45G | 0.02
39 | A4G G7U G27U | 0.42
40 | A4U C18G G30C U43C G44U | 0.06
41 | A4U A6C U9C G33U A39U G40U | 0.03
42 | G5A A6U C15A G21C | 0.07
43 | A4G C18G G30U | 0.48
44 | A4G G7U G21C A41U | 0.08
45 | A4U G17A A24G C31A U32A | 0.03
46 | G5A A11G C31U | 0.02
47 | A4U U9A A25C C46U | 0.18
48 | A4G G7C U32A C42U | 0.04

Row | Variant | self-cleavage
49 | A4U C15A U34A | 0.08
50 | A4U A14C G30U | 0.1
51 | A4U U9C C13U G21C | 0.08
52 | A4U U9A A11U C18G G40U C45A | 0.01
53 | A4U G7C G22A | 0
54 | A4U G5C G7C A14G C15A C23A G44A | 0.04
55 | A4U A25G G29A U34A A39C | 0.2
56 | A4U G7U G22C A26C | 0.67
57 | A4G U34C U43C | 0.02
58 | A4U C8G G22C A25G | 0.05
59 | A4U C18U U20C G35U C42A | 0.05
60 | A4G G5U A16U U43A C45A | 0
61 | A4G U9A U20A G27U | 0.06
62 | A4U C10A A14C A25C C42A | 0.01
63 | A4G G21A G44U | 0.07
64 | A4G C18G A24G | 0.12
65 | A4G G27U C31A G40C | 0.01
66 | G5A A6U G29C U34A | 0.03
67 | A4U A16C C23G U38G C45U | 0.01
68 | A4G C13A G40U U43A | 0.01
69 | A4U C15G U20C | 0.02
70 | G5A A11C U28A G30A C31A U34C C45U | 0.01
71 | A4U C23U G35U | 0.17
72 | A4U G19U G35A U38C | 0.01

Row | Variant | self-cleavage
73 | A4U G22A U43A | 0.47
74 | A4U C13U U34G | 0.02
75 | A4G C18A G29A G36A | 0.15
76 | A4G C13A U43G | 0
77 | A4U A24U A26C | 0.16
78 | A4U C18A C46G | 0.16
79 | A4U G5A U32G C37U U38C | 0.05
80 | A4G G19U U20C G33U | 0.06
81 | A4G G19U G29A G35A | 0.04
82 | A4U A16U G17A A26G G33C U43C | 0.1
83 | A4U U20C C42G | 0.06
84 | A4U G29A U38C | 0.16
85 | A4U A11C G36C | 0.02
86 | A4U G19U U20G C23A G33U | 0.01
87 | A4U G30U G35A C45U | 0.03
88 | A4G G17C A25U C42U | 0.12
89 | G5A A11C A24U C45G | 0.02
90 | A4U U32A G33C U43C | 0.02
91 | A4G C18A G30C C31U | 0.05
92 | A4U A14C G21U | 0.08
93 | A4G C23U C42A | 0.06
94 | A4U A6C U9C A11G U20A G27A C37A U43A | 0.01
95 | A4U G30A A39C | 0.12
96 | A4G C31G A39U | 0.01

Row | Variant | self-cleavage
97 | A4G C15G A25C G27U | 0.02
98 | A4U C15A C18U G36A A39G | 0.04
99 | A4U C10A G22U C46U | 0.03
100 | A4U U9G U20C G29C | 0.03
101 | A4U G17A U32A G33C G35A | 0.04
102 | A4G U20G G22C | 0.21
103 | A4U G7U C15U C18U G35A | 0.05
104 | A4G G33A G36U | 0.1
105 | A4G U9A G17A G21U G30C G33A C46A | 0
106 | A4U G7C G22A U43G | 0.07
107 | A4U C13A C46U | 0.1
108 | A4U C10A G22A C23G G27U U32G | 0.03
109 | A4G G7A A24C G27C | 0.03
110 | G5A A6G G22A | 0.05
111 | A4U G5C A25G G30A G36A | 0.05
112 | A4G G21U G27A | 0.15
113 | A4U A6U U28A | 0.11
114 | A4U A14G G17A A39U C45A | 0.01
115 | A4U A14U G21U | 0.18
116 | A4U A16G A25U A26U | 0.04
117 | A4U C13U G29A | 0.04
118 | A4U C8U C46A | 0.11
119 | A4G U32C G35A U38G A41U | 0.03
120 | A4G G17C G35C G40C | 0.06

Row | Variant | self-cleavage
121 | A4G C18G A41C | 0.13
122 | A4U C8A U9G C15U G21U C31A C46A | 0.02
123 | G5A A6U C8U A16C U43C | 0.07
124 | A4U G17A U20G U32G | 0.06
125 | G5A A11C A25U G44C | 0.03
126 | A4G C15G U20C | 0.1
127 | A4U C8G G30U C31A U32A | 0.03
128 | G5A A6C C13U | 0.03
129 | A4G G29A A39U | 1.13
130 | A4U G7U C10G | 0.04
131 | A4U C8G G21C A25G | 0.02
132 | A4U G17U U28A | 0.07
133 | G5A A6G A14U A16C C18G A25G G27C U32G | 0.08
134 | A4U G27C G30C C37G | 0.08
135 | A4G G7U C8U G29U | 0.25
136 | A4G U9G U20G G30C C46G | 0.01
137 | A4G G30U C31A | 0.3
138 | A4G G7C C13G C31A C42A | 0.05
139 | A4G U9G U20A A41U C42U | 0.03
140 | A4U G5U A41U C45A | 0.47
141 | A4U A11U G17U U20C C37A G44U | 0.02
142 | A4U U9A C37U | 0.11
143 | A4U C10A A11G A24U U28C U32A G33U G40C | 0.02
144 | A4G C31U A41U | 0.01

Row | Variant | self-cleavage
145 | A4G U43A C46G | 0.12
146 | A4U C15G C23A G33A | 0.01
147 | A4G G5A A12C G22A G44U | 0.01
148 | A4U C15U G17A U32C | 0.08
149 | A4U G5U C10G G29U A39U G40C C42G | 0.02
150 | G5A A11C A16C C18A C37A | 0
151 | A4G G21C C23U | 0.63
152 | A4U G5C A6C G35A | 0.04
153 | A4G G21U G33U | 0.17
154 | A4G G17C C23A C31A G36C | 0.02
155 | A4G G7C C8U C42A | 0.29
156 | A4G G5U G21U U43C | 0.11
157 | A4G G21U U34G | 0.05
158 | A4U A24U G27A G30U G33U G40U U43G C46A | 0.14
159 | A4U G19A U20G G30A A41C | 0.02
160 | A4U A14U G27A C42U | 0.11
161 | A4U U43C C45G | 0.02
162 | A4U U34A C42A | 0.05
163 | A4U C13A A41C | 0.02
164 | A4G C31U G35A U38G | 0.02
165 | A4U A11U G22A A25C | 0.02
166 | A4U G17U G21A | 0.09
167 | A4G C15G G17A A24U U38G | 0.02
